Data: PubChem BioAssay AID1347430 (National Center for Advancing Translational Sciences (NCATS), 2020)
The whole screen tested about 91,000 compounds, of which about 130 (0.14%) were called active. This list was built around the results that the source calls inconclusive (neither active nor inactive); the mix of calls is not that of the screen. Calls follow the shape of the dose curve; as a rule, active = well fitted inhibition curve with a large enough effect; inconclusive = small, poorly fitted or top-dose-only effect; inactive = flat fitted curve, though single readings scatter. Potencies beside an inconclusive call are fits to weak or partial responses and may not hold up.

Each compound was assayed on Uracil-DNA glycosylase (assay: Primary qHTS assay for inhibitors of Activation Induced Cytidine Deaminase (AID): UDG Counterscreen signal). Settings: FRET deamination/UDG coupled assay, UDG read, 4 h; series mostly up to 115 µM.
Also: nearly all actives have a fitted effect of over 65% in size.
Potency is read from the fitted curve at half-maximal effect; tags tell the direction and shape of the fitted curve.

| Compound | Potency |
| --- | --- |
| Cc1ccccc1-c1noc(-c2cccnc2NCc2ccco2)n1 | inconclusive: 89.1 µM [inhibitor, single point] |
| COc1ccc(/C=C/c2nc(C#N)c(N3CCN(C(C)=O)CC3)o2)cc1 | inconclusive: 89.1 µM [inhibitor, single point] |
| NC(N)=N/N=C/c1cccc([N+](=O)[O-])c1 | inactive |
| Cc1ccc(CNC(=O)C2CCCN(c3nc4ccccc4n4cccc34)C2)cc1 (configuration not stated) | inactive |
| COc1ccc(C(C)NC(=O)CN(c2cc(OC)ccc2OC)S(=O)(=O)c2ccccc2)cc1 (configuration not stated) | inconclusive: 89.1 µM [inhibitor, single point] |
| Cc1ccc(C)c(CN2CCC(CNC(=O)C(CC(C)C)N3Cc4ccccc4C3=O)CC2)c1 (configuration not stated) | inconclusive: 79.4 µM [inhibitor, single point] |
| COc1ccc(-n2c(CC3C(=O)Nc4ccc(C)cc43)nc3ccccc3c2=O)cc1 (configuration not stated) | inconclusive: 89.1 µM [inhibitor, partial curve, poor fit] |
| COc1ccc(NC(=O)C(C)Oc2cccc(C)c2C)c2cccnc12 (configuration not stated) | inactive |
| Cc1nc(-c2cccc(F)c2)sc1CCNC(=O)Cc1ccc(F)cc1 | inactive |
| CCOC(=O)c1[nH]c2ccccc2c1NC(=O)CCN1CCCC(C)C1 (configuration not stated) | inconclusive: 100 µM [inhibitor, single point] |
| Cc1nnc2c3ccccc3nc(Nc3ccc(F)cc3Cl)n12 | inconclusive: 89.1 µM [inhibitor, single point] |
| OCCN1CCN(c2ncnc3c2cnn3-c2cccc(Cl)c2)CC1 | inconclusive: 79.4 µM [inhibitor, partial curve, poor fit] |
| Cc1ccc(Cl)cc1NC(=O)Cn1nnc2sc3c(c2c1=O)CCC(C(C)(C)C)C3 (configuration not stated) | inconclusive: 79.4 µM [inhibitor, partial curve, poor fit] |
| CC(C)NCC(O)c1cc(O)cc(O)c1 (configuration not stated) | inactive |
| CCc1ccc(NC(=O)N2CCN(c3nnc(C)c4c(C)n(-c5ccc(Cl)cc5)nc34)CC2)cc1 | inconclusive: 89.1 µM [inhibitor, single point] |
| CCCSc1nc(SC)c2c3c(sc2n1)COC(C)(C)C3 | inconclusive: 89.1 µM [inhibitor, single point] |
| CCOc1ccccc1N(CC)C(=O)Cn1ncc2c1-c1ccccc1OC2 | inconclusive: 89.1 µM [inhibitor, partial curve, poor fit] |
| Cc1ccc(C)c(-c2csc(Nc3ccc(S(=O)(=O)Nc4nc(C)cc(C)n4)cc3)n2)c1 | active: 89.1 µM |
| Cc1c(C(=O)N2CCCC2)oc2c1-c1nn(CC(=O)NCc3ccccc3F)cc1CC2 | inconclusive: 17.8 µM [inhibitor, full curve, poor fit] |
| CC1CCN(c2nc3ccccc3nc2SCC(=O)Nc2ccccc2C(C)C)CC1 | inconclusive: 89.1 µM [inhibitor, single point] |
| CCOC(=O)Cn1c(=N)n(CCOc2ccc(OC)cc2)c2ccccc21 | inconclusive: 100 µM [inhibitor, single point] |

| Compound | Potency |
| --- | --- |
| COc1ccc(-c2c(C#N)c(SCC(=O)Nc3ccc(C)c(C)c3)nc(C)c2C(=O)Nc2ccccc2)cc1OC | inconclusive: 89.1 µM [inhibitor, single point] |
| C/C=C/C=C/C(=O)NC1CCCc2ccccc21 (configuration not stated) | inactive |
| Cc1cccc(OCCSc2nc3ccccc3n2CC(=O)N2CCOCC2)c1C | inconclusive: 89.1 µM [inhibitor, single point] |
| COc1cc(/C=C/c2nc3cc(Cl)ccc3c(=O)n2-c2ccc(C)cc2C)cc(OC)c1OC | inconclusive: 79.4 µM [inhibitor, partial curve, poor fit] |
| CC(NC(=O)c1cc(-c2ccc(Cl)cc2)on1)c1ccccc1 (configuration not stated) | inconclusive: 89.1 µM [inhibitor, single point] |
| CC(C)Oc1ccc(C(=O)Nc2nc3c(s2)CC(C(C)(C)C)CC3)cc1 (configuration not stated) | inconclusive: 89.1 µM [inhibitor, partial curve, poor fit] |
| Cc1oc2ncn(CC(C)C)c(=O)c2c1C(=O)N(Cc1ccccc1)C(C)C | inconclusive: 100 µM [inhibitor, single point] |
| Cc1ccc(Cn2c(C)c3cnn(CC(=O)N4CCN(c5ccc(F)cc5)CC4)c(=O)c3c2C)cc1 | inconclusive: 79.4 µM [inhibitor, partial curve] |
| N#CCc1ccccc1C(=O)OCC(=O)N1CCN(c2ccccc2)CC1 | inactive |
| CC(C)C(=O)c1cc2c(cc1NC(=O)c1ccccc1F)OCCO2 | inconclusive: 39.8 µM [inhibitor, single point] |
| COc1ccccc1Cc1nc2ccccc2nc1SCC(=O)N1CCCc2ccccc21 | active: 89.1 µM |
| O=C(NCc1ccccc1Cl)C(=O)NCC(c1cccs1)S(=O)(=O)c1ccccc1 (configuration not stated) | inconclusive: 100 µM [inhibitor, single point] |
| N#C/C(=C\c1ccc(-c2ccc(Cl)c(C(=O)O)c2)o1)c1nc2ccccc2[nH]1 | inactive |
| Cc1ccccc1-c1noc(-c2ccc(N3CCCC3)c([N+](=O)[O-])c2)n1 | inconclusive: 89.1 µM [inhibitor, single point] |
| Cn1cc(-c2cc3n(n2)CCC(=O)N3CCCC(=O)Nc2ccccc2Cl)c2ccccc21 | inconclusive: 56.2 µM [inhibitor, partial curve, poor fit] |
| O=S(=O)(c1ccccc1)c1nc(-c2cccs2)oc1N1CCCCC1 | inconclusive: 2.82 µM [inhibitor, full curve, poor fit] |
| CC1CCN(S(=O)(=O)c2ccc3c(ccn3CC(=O)NCc3ccc(N(C)C)cc3)c2)CC1 | inconclusive: 39.8 µM [inhibitor, single point] |
| COc1ccc(S(=O)(=O)Cc2ccc(C(=O)N3CCN(c4cc(C)ccc4C)CC3)o2)cc1 | active: 89.1 µM |
| COc1cccc(CNC(=O)c2sc3nc[nH]c(=O)c3c2C)c1 | inconclusive: 89.1 µM [inhibitor, single point] |
| COc1cccc(N2CCN(C(=O)c3cnc4c(-c5ccc(F)cc5)c(C)nn4c3C)CC2)c1 | inconclusive: 89.1 µM [inhibitor, single point] |
| COc1ccc(C(=O)Oc2c(Sc3ccccc3)c(C)nn2-c2ccccc2)c(OC)c1 | inconclusive: 89.1 µM [inhibitor, partial curve, poor fit] |

| Compound | Potency |
| --- | --- |
| COC(=O)c1ccccc1NS(=O)(=O)c1cc2c3c(c1)CC(=O)N3CCC2 | inconclusive: 89.1 µM [inhibitor, single point] |
| Cc1c(Cl)ccc2sc(N3CCN(C(=O)CCS(=O)(=O)c4ccc(F)cc4)CC3)nc12 | inconclusive: 79.4 µM [inhibitor, single point] |
| CC(C)c1ccc(NC(=O)c2cn(C3CCCC3)c(=O)c3c2c2ccccc2n3C)cc1 | inconclusive: 79.4 µM [inhibitor, partial curve, poor fit] |
| N#CC1=C(N)OC2=C(C(=O)CC(c3ccccc3)C2)C1c1ccccc1Br (configuration not stated) | inactive |
| CCOC(=O)c1cccc(NC(=O)CCc2c(C)nc3c4cccnc4nn3c2C)c1 | inconclusive: 79.4 µM [inhibitor, partial curve, poor fit] |
| Cc1c(C(=O)N2CCOCC2)oc2c1-c1nn(CC(=O)NCc3ccccc3)cc1CC2 | inconclusive: 56.2 µM [inhibitor, partial curve, poor fit] |
| CCOCCn1ccc2c(OCC(=O)Nc3cc(C(F)(F)F)ccc3Cl)cccc2c1=O | inconclusive: 89.1 µM [inhibitor, single point] |
| Cc1cccc(C(=O)Nc2cc3c(cc2N2CCCCC2)n(C)c(=O)n3C)c1 | inconclusive: 100 µM [inhibitor, single point] |
| N#Cc1c(N)n[nH]c1CCCNC(=O)c1cc2ccccc2cc1O | inconclusive: 11.2 µM [inhibitor, full curve] |
| Cc1ccccc1OCC(=O)Nc1ccc(S(=O)(=O)Nc2ncccn2)cc1 | inconclusive: 89.1 µM [inhibitor, single point] |
| COc1ccc(C(=O)Oc2c(Sc3ccc(C)cc3)c(C)nn2C(C)(C)C)c(OC)c1 | inconclusive: 89.1 µM [inhibitor, partial curve, poor fit] |
| Cc1ccc(C)c(CNC(=O)C2CCCCN2S(=O)(=O)c2ccc(F)cc2)c1 (configuration not stated) | inconclusive: 89.1 µM [inhibitor, partial curve, poor fit] |
| Cc1cccc(-c2cc(NC(=O)c3ccccc3C)n(-c3ccccc3)n2)c1 | inconclusive: 100 µM [inhibitor, single point] |
| Oc1ccc2ccccc2c1C=Nc1c(F)c(F)c(F)c(F)c1F | inconclusive: 50.1 µM [inhibitor, partial curve, poor fit] |
| FC(F)(F)c1ccc(Cl)c(N/N=C/c2ccc(OCc3ccccc3)cc2)c1 | inactive |
| Cc1ccc2c(=O)cc(C(=O)Nc3ccc(S(=O)(=O)N4CCCCC4)cc3)oc2c1C | inconclusive: 28.2 µM [inhibitor, partial curve, poor fit] |
| Cc1cccc(N2CCN(c3ncnc4onc(-c5ccc(F)cc5)c34)CC2C)c1 (configuration not stated) | active: 79.4 µM |
| Cc1ccc(NC(=O)CCc2nc3cccnc3n2-c2ccccc2)cc1 | inconclusive: 89.1 µM [inhibitor, single point] |
| O=C(NCCCc1nc2ccccc2n1Cc1ccccc1Cl)C1CCCCC1 | inconclusive: 89.1 µM [inhibitor, single point] |
| CCCN(c1ccc(OCC)cc1)c1nc(C(=O)OCC)nc2ccccc12 | inconclusive: 100 µM [inhibitor, single point] |
